# This is one part of the list.
# B1: PhoQ; a variant is named by its letters at X, in order, P23837 (parent)
# chain: MKKLLRLFFPLSLRVRFLLATAAVVLVLSLAYGMVALIGYSVSFDKTTFRLLRGESNLFYTLAKWENNKLHVELPENIDKQSPTMTLIYDENGQLLWAQRDVPWLMKMIQPDWLKSNGFHEIEADVNDTSLLLSGDHSIQQQLQEVREDDDDAEMTHSVAVNVYPATSRMPKLTIVVVDTIPVELKSSYMVWSWFIYVLSANLLLVIPLLWVAAWWSLRPIEALAKEVRELEEHNRELLNPATTRELTSLVRNLNRLLKSERERYDKYRTTLTDLTHSLKTPLXXLQXXLRSLRSEKMSVSDAEPVMLEQISRISQQIGYYLHRASMRGGTLLSRELHPVAPLLDNLTSALNKVYQRKGVNISLDISPEISFVGEQNDFVEVMGNVLDNACKYCLEFVEISARQTDEHLYIVVEDDGPGIPLSKREVIFDRGQRVDTLRPGQGVGLAVAREITEQYEGKIVAGESMLGGARMEVIFGRQHSAPKDE
# Variants of: B1
# Test: enrichment ratio after two sorts for PhoP signalling (ratio (wild type AVST 3.29)); higher = more functional
# Details: with PhoP (E. coli)
row,Variant,enrichment ratio
1,GGSK,≤ 0.25
2,HIRT,≤ 0.25
3,SQKE,≤ 0.25
4,GSIT,2.65
5,WFVF,≤ 0.25
6,EQHF,≤ 0.25
7,IIQR,≤ 0.25
8,LAVM,0.451
9,FPES,≤ 0.25
10,MKLD,≤ 0.25
11,VFLC,≤ 0.25
12,ITDH,≤ 0.25
13,EITG,≤ 0.25
14,RRPQ,≤ 0.25
15,KEDD,≤ 0.25
16,LDWD,≤ 0.25
17,WQNY,≤ 0.25
18,YVRH,≤ 0.25
19,IWSK,≤ 0.25
20,FTNC,≤ 0.25
21,WNLV,≤ 0.25
22,YQED,≤ 0.25
23,PSDQ,≤ 0.25
24,NPNN,≤ 0.25
25,HLWN,≤ 0.25
26,EQLI,≤ 0.25

row,Variant,enrichment ratio
1,TKMY,24
2,PMCE,≤ 0.25
3,IDCQ,≤ 0.25
4,QEGY,≤ 0.25
5,KEPK,≤ 0.25
6,WPKR,≤ 0.25
7,VMEC,≤ 0.25
8,RRHL,≤ 0.25
9,SNQF,3.81
10,PFVA,≤ 0.25
11,WTNT,≤ 0.25
12,LVRM,≤ 0.25
13,EILH,≤ 0.25
14,NMFE,≤ 0.25
15,VSSL,1.57
16,ILND,≤ 0.25
17,NNQQ,≤ 0.25
18,LPSR,≤ 0.25
19,YRAN,≤ 0.25
20,HYTD,≤ 0.25
21,YRSV,≤ 0.25
22,SWSF,≤ 0.25
23,MRPL,≤ 0.25
24,NKWF,≤ 0.25
25,KLNR,≤ 0.25
26,GGKK,≤ 0.25

row,Variant,enrichment ratio
1,QEDF,≤ 0.25
2,RNPC,≤ 0.25
3,QGNQ,≤ 0.25
4,GIRL,≤ 0.25
5,EYAH,≤ 0.25
6,WWLL,≤ 0.25
7,HEHK,≤ 0.25
8,QFWV,≤ 0.25
9,MPQV,≤ 0.25
10,YKIW,≤ 0.25
11,IDQS,≤ 0.25
12,VGKR,≤ 0.25
13,RKSI,≤ 0.25
14,KKIY,≤ 0.25
15,SAPN,≤ 0.25
16,GKFY,≤ 0.25
17,SHVV,≤ 0.25
18,IRGF,≤ 0.25
19,HRTV,≤ 0.25
20,YNYV,≤ 0.25
21,HRQM,≤ 0.25
22,ARFH,≤ 0.25
23,VHFR,≤ 0.25
24,TLDN,≤ 0.25
25,AGNH,≤ 0.25
26,EDTK,≤ 0.25

row,Variant,enrichment ratio
1,PANQ,≤ 0.25
2,RGEN,≤ 0.25
3,KSQH,≤ 0.25
4,MNCG,≤ 0.25
5,NLLV,≤ 0.25
6,IKEF,≤ 0.25
7,YQTK,≤ 0.25
8,GVFK,≤ 0.25
9,PHTY,≤ 0.25
10,KNKG,≤ 0.25
11,ASWW,≤ 0.25
12,IVDN,≤ 0.25
13,QETH,≤ 0.25
14,YLEV,≤ 0.25
15,NIVF,≤ 0.25
16,NPQA,≤ 0.25
17,RQRR,≤ 0.25
18,YGND,≤ 0.25
19,PWLY,≤ 0.25
20,PRYA,≤ 0.25
21,PGYN,≤ 0.25
22,IAVN,≤ 0.25
23,EYLP,0.7
24,WDCA,≤ 0.25
25,TPNF,≤ 0.25
26,GGNL,≤ 0.25

row,Variant,enrichment ratio
1,DLHL,≤ 0.25
2,PCND,≤ 0.25
3,PDAS,≤ 0.25
4,YIWR,≤ 0.25
5,YDYF,≤ 0.25
6,MEWD,≤ 0.25
7,SRKI,≤ 0.25
8,DDFQ,≤ 0.25
9,TRAF,≤ 0.25
10,MPRF,≤ 0.25
11,VNHW,≤ 0.25
12,LAPH,≤ 0.25
13,MLHT,11.5
14,RFVY,≤ 0.25
15,AHPN,≤ 0.25
16,PGRG,≤ 0.25
17,AHMK,≤ 0.25
18,LGIV,≤ 0.25
19,LAGD,≤ 0.25
20,HHLI,≤ 0.25
21,RNGM,≤ 0.25
22,YGNM,≤ 0.25
23,ISSN,≤ 0.25
24,QKTL,≤ 0.25
25,ADHY,≤ 0.25
26,DPTY,≤ 0.25

row,Variant,enrichment ratio
1,HWNC,≤ 0.25
2,PQVF,≤ 0.25
3,FHWH,≤ 0.25
4,SRTH,≤ 0.25
5,TQSE,5
6,PRGY,0.915
7,YPDD,≤ 0.25
8,HKES,≤ 0.25
9,TQRQ,≤ 0.25
10,AMRY,≤ 0.25
11,DTWR,≤ 0.25
12,HHNG,≤ 0.25
13,IKAQ,≤ 0.25
14,YQYM,≤ 0.25
15,GADR,≤ 0.25
16,TDKM,≤ 0.25
17,FWKI,≤ 0.25
18,TKSW,≤ 0.25
19,ETNA,≤ 0.25
20,DCGS,≤ 0.25
21,IGII,≤ 0.25
22,PDRN,≤ 0.25
23,VSLV,9.64
